# The list shows a part of the results, in another mix than the full data. Results filed as inconclusive are left out. Active and inactive are the calls of the source. Calls come from the whole dose curve; as a rule, active = well fitted curve in the direction sought with a large enough effect; inconclusive = small, poorly fitted or top-dose-only effect, or effect the other way; inactive = no such curve, though single readings can be large or run the other way.
# Biological target: Cytochrome P450 3A4 (Homo sapiens) (UniProt P08684)
# Experiment: Cytochrome panel assay with activity outcomes
# Conditions: recombinant CYP, pro-luciferin dealkylation, luminescence, p450-cyp3a4; series mostly up to 2.29 µM
# Sequence of UniProt P08684 (P08684 whole entry, looked up): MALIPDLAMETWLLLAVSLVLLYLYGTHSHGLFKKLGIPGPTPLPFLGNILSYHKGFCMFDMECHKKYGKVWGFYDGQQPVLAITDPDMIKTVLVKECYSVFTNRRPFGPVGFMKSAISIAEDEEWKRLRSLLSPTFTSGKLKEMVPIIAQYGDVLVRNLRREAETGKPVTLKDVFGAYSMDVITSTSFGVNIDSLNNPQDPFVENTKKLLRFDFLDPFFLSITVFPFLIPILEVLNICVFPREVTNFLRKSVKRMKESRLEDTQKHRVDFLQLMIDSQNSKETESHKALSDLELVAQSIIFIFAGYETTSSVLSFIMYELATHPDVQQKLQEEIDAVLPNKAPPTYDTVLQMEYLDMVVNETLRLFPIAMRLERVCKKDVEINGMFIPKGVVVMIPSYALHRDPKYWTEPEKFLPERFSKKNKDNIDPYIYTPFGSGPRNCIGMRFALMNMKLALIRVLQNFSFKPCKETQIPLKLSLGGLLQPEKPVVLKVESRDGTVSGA
row,SMILES,AC50
1,COC(=O)C1=C(C(=O)OC)C(c2cc(Cl)ccc2O)c2sc(=O)[nH]c2S1 (stereo not drawn),active: 15.8 µM
2,Cc1ccc(OCCNC(=O)/C=C/c2ccc([N+](=O)[O-])cc2)cc1C,inactive
3,Nc1ccc(Sc2ccccc2CC(=O)O)cc1,inactive
4,CCOc1cc(/C=N/n2cnnc2)ccc1OC(=O)c1cccc([N+](=O)[O-])c1,active: 15.8 µM
5,CCN(C(=O)CSc1nnc(Cc2cccc3ccccc23)n1N)C1CCS(=O)(=O)C1 (stereo not drawn),active: 6.31 µM
6,O=S(=O)(c1ccccc1)N1CCN(S(=O)(=O)c2ccccc2)c2ccccc21,active: 3.98 µM
7,CC[C@](C)(CN(C)C)OC(=O)c1ccccc1,inactive
8,COc1ccc(C2=NN(C)C(=NCc3ccccc3)SC2)cc1,inactive

# Source: PubChem BioAssay AID1851 (National Center for Advancing Translational Sciences (NCATS), 2009)
